Assay results as given in publication PMC4336329 (PLoS ONE, 2015).
Hit rate of the full screen: of about 310,000 compounds, about 2,200 (0.71%) showed an effect of 50% or more. The effect is printed as a negative number. This is one part of the list.

molecular target: human ether-à-go-go-related gene (hERG) potassium channel (human, UniProt Q12809); assay: primary screen, population patch clamp on CHO cells stably expressing hERG
Sequence (Q12809 whole entry, looked up): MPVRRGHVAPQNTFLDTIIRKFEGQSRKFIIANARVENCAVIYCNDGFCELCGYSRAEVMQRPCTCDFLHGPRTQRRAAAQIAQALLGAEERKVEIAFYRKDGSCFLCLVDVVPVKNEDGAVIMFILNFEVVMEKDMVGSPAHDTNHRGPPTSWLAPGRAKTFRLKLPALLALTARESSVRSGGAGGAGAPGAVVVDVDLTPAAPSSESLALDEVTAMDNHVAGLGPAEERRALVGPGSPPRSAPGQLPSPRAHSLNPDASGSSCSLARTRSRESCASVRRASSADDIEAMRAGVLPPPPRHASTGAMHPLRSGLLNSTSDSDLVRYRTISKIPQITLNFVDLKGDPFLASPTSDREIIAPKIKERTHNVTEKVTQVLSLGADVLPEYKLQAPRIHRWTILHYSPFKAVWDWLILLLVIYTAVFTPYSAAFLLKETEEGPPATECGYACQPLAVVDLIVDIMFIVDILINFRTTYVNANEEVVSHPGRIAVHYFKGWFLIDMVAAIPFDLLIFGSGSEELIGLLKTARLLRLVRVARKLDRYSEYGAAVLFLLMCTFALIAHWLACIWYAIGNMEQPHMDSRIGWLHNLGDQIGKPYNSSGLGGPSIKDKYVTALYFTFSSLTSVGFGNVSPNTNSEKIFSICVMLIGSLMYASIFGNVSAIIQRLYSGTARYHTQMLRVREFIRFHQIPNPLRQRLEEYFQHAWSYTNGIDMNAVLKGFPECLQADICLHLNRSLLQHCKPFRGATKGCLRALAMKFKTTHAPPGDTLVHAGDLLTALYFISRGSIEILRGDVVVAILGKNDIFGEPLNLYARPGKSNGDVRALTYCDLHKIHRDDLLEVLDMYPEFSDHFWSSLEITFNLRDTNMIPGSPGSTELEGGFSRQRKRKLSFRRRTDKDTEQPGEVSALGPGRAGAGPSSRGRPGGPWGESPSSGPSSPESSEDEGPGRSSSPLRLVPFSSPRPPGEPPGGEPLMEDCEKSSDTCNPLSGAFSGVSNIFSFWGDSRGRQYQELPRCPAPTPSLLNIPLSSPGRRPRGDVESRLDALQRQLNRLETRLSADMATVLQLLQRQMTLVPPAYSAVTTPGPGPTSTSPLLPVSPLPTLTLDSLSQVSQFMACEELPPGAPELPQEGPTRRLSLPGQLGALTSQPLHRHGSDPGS

Structure (SMILES)	hERG current change (%, negative = inhibition) at 1uM
O=C(C1CCN(S(=O)(=O)c2cccc3nsnc23)CC1)N1CC=C(c2ccccc2)CC1	12%
O=C(Cc1c(Cl)cccc1Cl)NC1=NCCS1	9.14%
CN(Cc1ccncn1)C(=O)C1CCC(=O)N(Cc2cccc(C(F)(F)F)c2)C1 (stereo not shown)	12.3%
CC1CCN(c2c([N+](=O)[O-])c(=O)oc3ccccc23)CC1	6.58%
CCOC(=O)c1sc(-c2ccc(C)cc2)c(C#N)c1C	15.7%
CCc1nc(NC(C)C)c2oc3ccccc3c2n1.Cl	13.2%
Cc1ccc(OC(C)c2nnc(N)s2)cc1Cl (stereo not shown)	5.17%
CCc1ccc(Cn2nnc(C(=O)Nc3ccc(OC)cc3OC)c2N)cc1	10.3%
O=C(CCCSc1nnc(Nc2ccccc2F)s1)N1CCOCC1	12.9%
O=S(=O)(Nc1ccc2c(c1)OCCO2)c1cccc2cccnc12	-7.42%
O=C(CSc1nc(=O)n(CCCN2CCOCC2)c2c1CCCC2)Nc1ccc(Cl)cc1	-48.1%
CCCC(C)C(=O)NCc1ccccc1OC (stereo not shown)	13.7%
O=C(CCN1CCN(C/C=C/c2ccccc2)CC1)Nc1cccc(F)c1	-62.6%
Cc1ccc(CNC(=O)C(CC(C)C)OC(=O)c2ccco2)cc1 (stereo not shown)	15.2%
CCOC(=O)C1CCCN(C(=O)CSc2nc(C)cc(C)n2)C1 (stereo not shown)	16.9%
CN(C)C(CNC(=S)Nc1ccc(F)cc1)c1cccnc1 (stereo not shown)	11.9%
C(=N\N=C\c1cccnc1)/c1cccnc1	3.67%
COc1cc(/C(C#N)=C/c2ccccc2)c([N+](=O)[O-])cc1OC	7.93%
COc1ccc(C(CC(=O)N2CCN(c3ccccc3)CC2)c2c(O)cc(OC)cc2OC)cc1 (stereo not shown)	16.8%
O=C1C=C(c2cccc(OCc3ccccc3)c2)C[C@@H](c2ccc3c(c2)OCO3)C1	6.66%
Cc1c(N)cccc1-n1cnnn1	11.9%
CCCCOc1ccccc1C(=O)NNC(=S)NC(=O)c1ccccc1[N+](=O)[O-]	4.47%
CN(CC(=O)NCc1cccnc1)S(=O)(=O)c1ccc2c(c1)c(=O)n(C)c(=O)n2C	13.1%

Structure (SMILES)	hERG current change (%, negative = inhibition) at 1uM
COc1ccccc1NC(=O)CSc1nnc2ccc(-c3cccnc3)nn12	-3.49%
Cc1nc(N)c(C#N)c(-c2ccccc2Cl)c1C	-2.2%
Cc1cc(/C([O-])=C(/C(=S)Nc2ccccc2)[n+]2ccccc2)c(C)n1-c1ccccc1	9.1%
CSc1nnc(C)c(/C=C/NOCc2cccc(F)c2)n1	12.1%
Cc1cc2ncn(S(=O)(=O)N(C)C)c2cc1C	16.6%
CCc1ccc(-c2cn(C3CCCCC3)c(=S)[nH]2)cc1	7.85%
CCCCCOc1ccc(NC(=O)C(=O)NCCCn2ccnc2)cc1	2.16%
COc1ccc(N(CC(=O)Nc2ccccc2Cl)S(=O)(=O)c2ccc(C)cc2)cc1OC	15.6%
CCOC(=O)c1cnc2c(C)c(Cl)ccc2c1Nc1ccc(S(=O)(=O)Nc2ncccn2)cc1	10.8%
C[C@@H](NC(=O)OC(C)(C)C)c1nnc(S(=O)(=O)Cc2ccccc2)o1	11.7%
CCOC(=O)CSc1nnc(NC(=O)c2ccco2)s1	12.4%
COC(=O)c1c(NC(=O)c2ccccc2)sc2c1CC(C)(C)OC2	-12.3%
O=C(NCCc1ccc(F)cc1)C1CCCCC1	16.5%
C=CCN(CC=C)C(=O)C1CCN(S(=O)(=O)c2ccc(N3CCCC3=O)cc2)CC1	11.2%
Cc1ccc(NC(=O)c2cc(S(=O)(=O)N3CCC4(CC3)OCCO4)ccc2F)cc1	0.398%
CN(C)C(=O)COn1c(SCC(=O)N(C)C)nc2ccccc2c1=O	13.4%
Nc1cc(C(F)(F)F)ccc1N1CCOCC1	12%
O=C(NC1CCN(Cc2ccccc2)CC1)c1cc(Br)c(Br)[nH]1	9.79%
Cc1cccc(CNc2ncnc3ccc(-c4ccccc4Cl)cc23)c1	8.86%
Nc1c(Cl)cc(C2=NCCn3c2c2ccc(C(F)(F)F)cc2[n+]3[O-])cc1Cl	0.491%
Cc1c(NC(=O)c2cc3c(=O)n4ccccc4nc3s2)c(=O)n(-c2ccccc2)n1C	4.91%
CCN(CC(=O)Nc1c(F)cccc1F)C(=O)C1CCCN(C(=O)c2ccc(Cl)cc2)C1 (stereo not shown)	-14.3%
Cc1c(C(=O)N2CCCC2)oc2c1-c1[nH]ncc1CC2	8.23%
